Some of the results follow.

The assay deals with PfSIP2 AP2 domain 1 (GST-tagged). As to the kind of experiment: gcPBM binding intensity (ln(normalized median fluorescence intensity)); higher = stronger DNA binding. The essentials:
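Binding intensity is the highest Masliner-normalised natural-log median intensity over replicate spots in either probe orientation. To obtain it, GST-tagged P. falciparum DNA-binding domains made in E. coli were incubated for 1 h on an Agilent 4 × 180k array of primer-extended double-stranded 36-bp intergenic genomic probes plus negative controls. Detection used Alexa488 anti-GST antibody with scanning at 488 nm.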
For the sequence “TTCTTTATATATTTTTGTACATATTTATTTTTAGAG [XGTACX_site6757]”, the “gcPBM binding intensity (ln)” value was determined as 7.26.
In the case of “ACTATATATATAAGTGCATGTTCATTATACCTAAAG [TGCATGCA_site696]” it was 9; in that of “AAAAATTCATTTTTATGTACGTACAAATTCTTCGTT [XGTACX_site2471]”, 7.33.
On to “TTTTAAAAAAATATAATACACACCAAAAATATGCAC [CACACA_site2131]”, for which the “gcPBM binding intensity (ln)” value is 9.9.
In the case of “AGTAAATTATATATCTGTACATATATATATGTGTAT [XGTACX_site5519]” it was 7.15; in that of “CTCACAAATGAATACACACAAACATATATATTTATA [CACACA_site1620]”, 7.11; in that of “AAAAAAATATAAATACGTACATATATATATATATAT [XGTACX_site432]”, 9.47.
In the case of “CTATTCTATTTTTATTGTACATATATATAATTTGAA [XGTACX_site389]” it was 7.37; in that of “TGGAATAATACGCGTACACACATATAAATATTAATA [CACACA_site6211]”, 7.52.
Regarding “ACACATGAATATTGTAGTACGGCAATTAATATAATA [XGTACX_site4589]”, the “gcPBM binding intensity (ln)” value stood at 6.82.
For “ATATAATGGCTAAATAGTACAATATAATATTTTTTA [XGTACX_site8922]”, the “gcPBM binding intensity (ln)” value stood at 6.89.
With “AGAAAGGAAAAAACCTCACACATGCTTTTAATAGTA [CACACA_site4602]”, the “gcPBM binding intensity (ln)” value stood at 6.77.
In the case of “TTTTTTATATTGTGATGTACAAATTTTAAAATGTAG [XGTACX_site1875]” it was 7.27; in that of “AAATTCGTTATAAAAACATGCAACGATCAACATTGT [TGCATGCA_site844]”, 6.81; in that of “TTACTCTTTATATAATGTACATATATATATATATTA [XGTACX_site2624]”, 7.45.
In the case of “GTGTGGAGTTACAAAGAGGAGAACCTCACAGTAATC [CACACA_negctrl_site527]” it was 6.91; in that of “ATATATATATATATAATACACACTTATGAAATGTCT [CACACA_site1827]”, 9.47.
As for “TTACACATATTTTTAATTATTCTGAATTCAAAAAAA [CACACA_negctrl_site1706]”, the “gcPBM binding intensity (ln)” value came to 6.91.
In the case of “ATAATCATAAAATAAACACACATATATAAATATATT [CACACA_site276]” it was 6.95.
In the case of “GTAATATTAAAATATACACACATAGAATATATATAT [CACACA_site4391]” it was 8.8; in that of “TGAAAAAAGAAAAATACACACATATAACATAATATA [CACACA_site7126]”, 6.67.
In the case of “AATCTATATTAATACACACACACATATATTTATATA [CACACA_site7732]” it was 7.25; in that of “TTTATTTTGACAGATTGTACACTTTATACATGTTTT [XGTACX_site2356]”, 7.07; in that of “GTATATATTTCCAGAAGTACTTATTTTTATGTATGT [XGTACX_site4079]”, 7.26.
In the case of “TTATATTTATTGATATGTACATATTATAATTAATTA [XGTACX_site586]”, the “gcPBM binding intensity (ln)” value was 7.22.
In the case of “TGATTACATATGATGTGTACCTAATTTTGTTTACAC [XGTACX_site7032]” it was 6.88.
As to “AAAAATGCCAGAAAACGTACTCGGATTTTCTAATAT [XGTACX_site6552]”, the “gcPBM binding intensity (ln)” value came to 6.75.
With “AAAACACGCGGACACACACACACACCCACCCATATA [CACACA_site8688]”, the “gcPBM binding intensity (ln)” value was 7.03.
On to “TTTTAATATTTTGCCTGTACATAAAAGTGAGAAGAT [XGTACX_site2503]”, for which the “gcPBM binding intensity (ln)” value came to 7.73.
As for “TATAAAGGTTGGTACTGTACAATATAAGAAAAAAAA [XGTACX_site435]”, the “gcPBM binding intensity (ln)” value amounted to 7.03.
In the case of “AAATAGTTCATAAAAAGTACAAAATTTTTATCCGTA [XGTACX_site2796]” it was 6.83; in that of “ATCATTCATTTAACAACACACAACATATTTATCATA [CACACA_site1041]”, 7.14.
For the sequence “TATATATTATATAAGAGTACATATAATTATAGTTTT [XGTACX_site5039]”, the “gcPBM binding intensity (ln)” value was 6.93.
For “AGGCTATAATACCATACACACATTTATAAAATAACA [CACACA_site6990]”, the “gcPBM binding intensity (ln)” value stood at 7.16.
Regarding “TAAAAATTTGATCAAACACACGTTGCATAAATTATA [CACACA_site6040]”, the “gcPBM binding intensity (ln)” value worked out at 7.04.
In the case of “TTTTTGTAAACCTACTTCATAATTATTTATATCTAT [XGTACX_negctrl_site599]” it was 6.98; in that of “ACATATATTTATATATGTACATATGATATATACATA [XGTACX_site6122]”, 7.12.
In the case of “CTTTTGTATATTATATGTACACACAATAAGTTAATA [XGTACX_site1684]” it was 7.25; in that of “TACATATAAACAATAACACACACCTAGGTACATGGA [CACACA_site8178]”, 6.86.
In the case of “AATTAACAAAAACACACACACACACCCACAAAAAAA [CACACA_site517]” it was 7.19; in that of “ATTGTTAAATATAATACACACGTTTTTAAAAATATA [CACACA_site5239]”, 7.17; in that of “AAAAAAAAAAAACATACACACACATATATATATATA [CACACA_site8452]”, 9.32.
As to “TAAAAATAAATAAATACATGCACCAAAAATAAATTT [TGCATGCA_site801]”, the “gcPBM binding intensity (ln)” value turned out to be 10.2.
In the case of “ATTGCCATTGTTAATGCATGTAACAATTCAGCTCAT [TGCATGCA_site56]” it was 6.96.
In the case of AAAATTATTTAGTAAGTGCAAAAAAAAAAAAAAAAA it was 8.21; in that of “AATTTGATTATAAATTGTACATATATATATTAAAAG [XGTACX_site5461]”, 7.25; in that of “AAGAAAAAAAAAAAAACACACATATATTTATTTATA [CACACA_site7042]”, 6.78.
In the case of “TATACACATAGACACACACACAAAAAAAAAAAAAAA [CACACA_site6338]” it was 7.01; in that of “GAAAGAAAAAATGATGAATAGAGATCAAATCTATAT [XGTACX_negctrl_site28]”, 6.84.
For the sequence “TTGAGAAAAATTAATGGTACACATATTATAAGTATA [XGTACX_site6539]”, the “gcPBM binding intensity (ln)” value is 7.09.
In the case of “TGTATAACATTTAGGTGTACAATTATATATAATATA [XGTACX_site8131]” it was 7.18; in that of “TAATTGTACACATGCACACACAAATATTATAGATGT [CACACA_site6528]”, 7.64.
In the case of “TGACATATTATTAGGTGGTCACGTCTCCACGTCAAG [XGTACX_site7943]” it was 7.06; in that of “AAACGGGAGAAATAAAAATAAAAATAATAAAACAAA [XGTACX_negctrl_site586]”, 6.77.
Take “TATACTCATGGACACACACACATACACAGACATACA [CACACA_site5024]”: the “gcPBM binding intensity (ln)” value is 7.37.
In the case of “TTCATATATAATTGTACACACAAAAACGACATTGTG [CACACA_site2074]”, the “gcPBM binding intensity (ln)” value turned out to be 7.09.
In the case of “TAAATATGAGGGAACACACACATGATATATAAATTC [CACACA_site2400]” it was 6.85; in that of “GGAAATAAAATTAAATGTACGAAAACTCATTAAATT [XGTACX_site4274]”, 6.75; in that of “TAAATAAAAAGACACACACACATATTTATATTTATA [CACACA_site7135]”, 6.89.
In the case of “ATATTAAAAAGGAAATGTACGTAATGAAGATCAAGT [XGTACX_site3138]” it was 7.86; in that of “TAAATTGGTGCAAAGTGTACATATATATCTTTCCTA [XGTACX_site5458]”, 11.4; in that of “GAGAAAAATATATACACACACATAAATATATACATA [CACACA_site1895]”, 6.98.
“AAATATCAACTCAAATGTACAAATCACAAAAATGTA [XGTACX_site5344]”: the “gcPBM binding intensity (ln)” value amounted to 6.9.
In the case of “ATATATGATGTATTTGTGCACATATATATATTATTA [GTGCAC_site9471]” it was 8.94; in that of “TTAAAAAACATTTGAACATGCAATTGTATATGTAGA [TGCATGCA_site334]”, 6.84; in that of “ATATATACCTATATTACACACTTCTTATTCTAAGAA [CACACA_site7421]”, 6.98.
“ATTGTTACATAAAATGCACACTTTCAAATATGCTAA [CACACA_site5600]”: the “gcPBM binding intensity (ln)” value is 7.39.
In the case of “TATTTATTAAGACACACACACACACGCACAAAATAA [CACACA_site6254]” it was 7.59.
“TATACACATATATATAGTACATATATAATTTACTAT [XGTACX_site1849]”: the “gcPBM binding intensity (ln)” value worked out at 7.06.
As for “AGTATTCTAATTTTTAAACACACAAATATAAATAAG [CACACA_site9029]”, the “gcPBM binding intensity (ln)” value was 7.07.
In the case of “AGGGTTCATATATTAACACACACATACATATTATAT [CACACA_site8959]” it was 6.94.
In the case of “AAACAAAAGGAAAACATATATATATTAAATGTATAT [CACACA_negctrl_site1663]” it was 7.14; in that of “TGAAATTAAATATATACACACATATATATTTATATG [CACACA_site3516]”, 6.82.
In the case of “GCAAAATAACAATGTTACACTTATAAAATTGAGGCA [GTGCAC_negctrl_site68]” it was 6.87; in that of “TTTTTTTTTCTCCATACACACTTGATAAAACTTTTT [CACACA_site4512]”, 6.88; in that of “ATTTATATTCCAATATGTACATATTTTCGTATAACC [XGTACX_site8507]”, 7.05.
Turning to “ATTACAAATTCTTTCAGTACATATAAAGAAAAAAAT [XGTACX_site7786]”, the “gcPBM binding intensity (ln)” value is 7.21.
In the case of “ATTTAGAATGTTCCTACACACCAAATTTAAGGGTGC [CACACA_site5320]” it was 8.5; in that of “AAAAAAAAAACACACACATGCACATCATATTATATA [TGCATGCA_site133]”, 7.03; in that of “TTAATACAAATAAAAAGTACAAGTATCGAACTACTA [XGTACX_site6308]”, 6.82.
In the case of “TTTTTAGTAACATATAGTACATATATATATATATGT [XGTACX_site4780]” it was 7.36; in that of “TTATTTTTTCTTCAAATGTGAATTATTCATTTATTT [TGCATGCA_negctrl_site545]”, 6.74; in that of “ATAATATGAAACTCGTACGAGGTTGTCCCAAATATA [CACACA_negctrl_site1350]”, 6.87.
As for “ATATATTATCAACTTACACACAGAAAAATATAATAA [CACACA_site293]”, the “gcPBM binding intensity (ln)” value is 6.96.
As for “TTTAAAGGTGATAAAACACACGATTTAGAAATGTAT [CACACA_site3161]”, the “gcPBM binding intensity (ln)” value was 7.01.
In the case of “GATATGTAAATAATATGTACATATTTATATTGTATT [XGTACX_site4052]” it was 7.04; in that of “AAAAAGAATGTGAACACACACATTGAATATAATTTA [CACACA_site1262]”, 6.67; in that of “GATATTTTTATTTGTTGTACTTAAGATAATAAATGA [XGTACX_site2891]”, 7.24.

The record behind these values is the supplement of paper PMC11417369.
